By T/C is commonly meant the ratio of treated to control. As usually defined, the TGI is how far tumour growth fell short of that in controls. Higher therefore signals a stronger effect on the tumour.

For this test, the system named is patient-derived prostate cancer PR9586 tumor tissues. The test is described as follows: PR9586 prostate cancer patient-derived xenograft model. Type of test: in vivo, mice. Particulars: 10 mg/kg i.v. once every two weeks x2, Day 25. From the text:
Patient-derived prostate cancer PR9586 and PR9587 tumor tissues were separately inoculated subcutaneously into NPG or NOG mice. When the tumors grew to about 500-800 mm^3, the tumor tissues were collected and the mice were euthanized. The collected tumor tissues were cut into tumor masses of a diameter of 2-3 mm and then inoculated subcutaneously into the right anterior scapula of the NPG or NOG mice. When the mean tumor volume of the tumor mass-inoculated NPG or NOG mice reached about 100-200 mm^3, the mice were randomized into groups with 6 mice in each of the blank control group and the treatment group.
The experiment ended on day 25 (for mice inoculated with PR9586) or on day 48 (for mice inoculated with PR9587). After the administration was started, the body weight and tumor size of the mice were measured twice a week. Calculation formula for tumor volume: Tumor volume (mm^3)=½×(a×b^2) (where a represents long diameter and b represents short diameter).
At the end of the experiment, mice were euthanized and tumor inhibition rate TGI was calculated as follows:
[formula] • wherein, • Ti: mean tumor volume of the treatment group on day i of administration; • T0: mean tumor volume of the treatment group on day 0 of administration; • Vi: mean tumor volume of the negative control group on day i of administration; • V0: mean tumor volume of the negative control group on day 0 of administration.

B1: WBP301088-X2: antibody WBP301088 conjugated to linker-payload X2; the DAR6 batch was used in Examples 3-11 (conjugate)
heavy: QVQLQESGPGLVKPSQTLSLTCTVTDYSITGDYAWNWIRQHPGKGLEWIGYISYSGSTSYNPSLQSRVTISRDTSKNQFSLKLSSVTAADTAVYFCARSLGRRWYFVVWGQGTTVTVSSASTKGPSVFPLAPSSKSTSGGTAALGCLVKDYFPEPVTVSWNSGALTSGVHTFPAVLQSSGLYSLSSVVTVPSSSLGTQTYICNVNHKPSNTKVDKRV[not shown - human IgG1 Fc with changes]
light: DIVMTQSPDSLAVSLGERATINCKSSQSLLQSSNQKNYLAWYQQKPGQPPKLLIYFASTRESGVPDRFSGSGSGTDFTLTISSLQAEDVAVYYCQQHYSAPWTFGGGTKVEIKRTVAAPSVFIFPPSDEQLKSGTASVVCLLNNFYPREAKVQWKVDNALQSGNSQESVTEQDSKDSTYSLSSTLTLSKADYEKHKVYACEVTHQGLSSPVTKSFNRGEC
Regarding B1, the T/C was 0.68%, the TGI stood at 99.32% and the “Tumor volume (mean ± SEM)” value stood at 17.08 ± 6.02 mm^3.

These data come from patent US20260224723A1, “ANTI-B7H3 ANTIBODY-DRUG CONJUGATE AND USE THEREOF” (Duality Biologics (Suzhou) Co., Ltd., priority 2022, published 2026).
